Data from patent US20240270821A1, “GIP/GLP1/GCG TRI-RECEPTOR AGONISTS AND USES THEREOF” (priority 2023, published 2024).
For at least one compound, name, drawing or mass did not settle the structure. Starred links: 1 amine or outer side, 2 acyl side, 3 side chain; linkers in the order of their positions; H or OH if unused. Non-standard residues stand in square brackets, D forms with d. Residues, ends and D or L forms follow the SMILES beside them. Groups on a side chain read outwards from the residue. *: point of attachment. C18 diacid = O=C(O)CCCCCCCCCCCCCCCCC(=O)*; αMePhe(2-F) = C[C@](N)(Cc1ccccc1F)C(=O)O; γGlu = O=C(O)[C@H](CCC(=O)[*:2])N[*:1]; αMe4Pal = C[C@](N)(Cc1ccncc1)C(=O)O; 4Pal = N[C@@H](Cc1ccncc1)C(=O)O; αMeL = CC(C)C[C@](C)(N)C(=O)O; αMeS = C[C@](N)(CO)C(=O)O; Orn = NCCC[C@H](N)C(=O)O; AEEA = NCCOCCOCC(=O)O; Aib = CC(C)(N)C(=O)O

How the values were obtained:
Type in all cases: cell-based
[1] = target: human GcgR (Homo sapiens, UniProt P47871); experiment: Functional cAMP activity in the presence of 1% HSA; details: HEK-293 clonal cell line, 1% HSA, geometric mean of relative EC50; read-out: cAMP Rel EC50, hGcgR
Sequence of human GcgR (P47871 26-477): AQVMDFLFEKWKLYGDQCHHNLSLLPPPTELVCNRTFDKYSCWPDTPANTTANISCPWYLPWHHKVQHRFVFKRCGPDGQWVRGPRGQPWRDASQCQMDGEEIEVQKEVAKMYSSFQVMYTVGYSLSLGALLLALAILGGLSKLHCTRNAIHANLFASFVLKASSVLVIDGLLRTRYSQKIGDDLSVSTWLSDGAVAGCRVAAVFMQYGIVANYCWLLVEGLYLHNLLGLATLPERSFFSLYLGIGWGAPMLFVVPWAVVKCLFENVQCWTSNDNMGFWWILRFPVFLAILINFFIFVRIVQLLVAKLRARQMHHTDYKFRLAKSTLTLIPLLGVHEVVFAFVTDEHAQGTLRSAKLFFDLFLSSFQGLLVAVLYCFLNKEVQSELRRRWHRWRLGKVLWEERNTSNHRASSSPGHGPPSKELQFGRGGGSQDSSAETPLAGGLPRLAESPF

[2] = target: T1, hGLP-1R (Homo sapiens, UniProt P43220); experiment: Functional cAMP activation in the presence of 0.1% casein (no HSA); details: in the presence of 0.1% casein (no HSA); geometric mean of relative EC50
T1 sequence (P43220 24-463): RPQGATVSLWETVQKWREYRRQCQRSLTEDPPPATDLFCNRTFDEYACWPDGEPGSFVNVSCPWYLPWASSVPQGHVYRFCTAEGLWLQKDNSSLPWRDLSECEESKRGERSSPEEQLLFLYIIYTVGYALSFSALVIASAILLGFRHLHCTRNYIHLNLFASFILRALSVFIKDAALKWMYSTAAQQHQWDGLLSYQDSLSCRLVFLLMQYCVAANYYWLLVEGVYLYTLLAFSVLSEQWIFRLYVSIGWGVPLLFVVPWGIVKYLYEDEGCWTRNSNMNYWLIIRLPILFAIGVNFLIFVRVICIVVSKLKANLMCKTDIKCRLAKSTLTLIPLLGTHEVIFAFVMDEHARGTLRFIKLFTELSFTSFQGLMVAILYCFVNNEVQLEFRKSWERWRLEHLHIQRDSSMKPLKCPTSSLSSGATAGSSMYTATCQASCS

[3] = target: T1, hGLP-1R; experiment: Functional cAMP activity in the presence of 1% HSA; details: HEK-293 clonal cell line, 1% HSA, geometric mean of relative EC50; read-out: cAMP Rel EC50, hGLP-1R
[4] = target: T2, hGIPR (Homo sapiens, UniProt P48546); experiment: Functional cAMP activity in the presence of 1% HSA; details: HEK-293 clonal cell line, 1% HSA, geometric mean of relative EC50; read-out: cAMP Rel EC50, hGIPR
T2 sequence (P48546 22-466): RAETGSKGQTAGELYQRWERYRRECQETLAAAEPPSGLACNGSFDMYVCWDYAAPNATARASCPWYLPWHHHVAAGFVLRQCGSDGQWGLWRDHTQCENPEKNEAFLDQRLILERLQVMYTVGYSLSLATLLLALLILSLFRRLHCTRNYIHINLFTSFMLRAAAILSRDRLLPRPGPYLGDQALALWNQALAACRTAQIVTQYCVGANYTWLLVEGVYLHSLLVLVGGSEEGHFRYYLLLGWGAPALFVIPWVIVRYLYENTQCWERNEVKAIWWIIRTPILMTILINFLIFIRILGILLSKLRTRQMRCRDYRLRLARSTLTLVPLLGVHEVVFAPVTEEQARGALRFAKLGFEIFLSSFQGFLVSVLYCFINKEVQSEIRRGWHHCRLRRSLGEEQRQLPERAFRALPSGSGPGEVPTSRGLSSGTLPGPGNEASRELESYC

[5] = target: hGcgR (Homo sapiens, UniProt P47871); experiment: Functional cAMP activation in the presence of 0.1% casein (no HSA); details: in the presence of 0.1% casein (no HSA); geometric mean of relative EC50
Sequence of hGcgR (P47871 26-477): as the sequence (P47871 26-477) above

[6] = target: T2, hGIPR; experiment: as above; details: in the presence of 0.1% casein (no HSA); geometric mean of relative EC50

Row | SMILES | EC50 [1] [nM] | EC50 [2] [nM] | EC50 [3] [nM] | EC50 [4] [nM] | EC50 [5] [nM] | EC50 [6] [nM]
1 | CC[C@H](C)[C@H](NC(=O)[C@H](Cc1ccccc1)NC(=O)[C@H](CC(N)=O)NC(=O)[C@](C)(Cc1ccncc1)NC(=O)[C@H](CCC(N)=O)NC(=O)[C@H](C)NC(=O)[C@H](CCCCNC(=O)COCCOCCNC(=O)CC[C@H](NC(=O)CCCCCCCCCCCCCCCCC(=O)O)C(=O)O)NC(=O)[C@H](CCCN)NC(=O)[C@H](CC(=O)O)NC(=O)[C@H](CC(C)C)NC(=O)[C@](C)(CC(C)C)NC(=O)[C@@H](NC(=O)[C@](C)(CO)NC(=O)[C@H](Cc1ccncc1)NC(=O)[C@H](CC(=O)O)NC(=O)[C@H](CO)NC(=O)[C@@H](NC(=O)[C@](C)(Cc1ccccc1F)NC(=O)[C@@H](NC(=O)CNC(=O)[C@H](CCC(N)=O)NC(=O)C(C)(C)NC(=O)[C@@H](N)Cc1c[nH]cn1)[C@@H](C)O)[C@@H](C)O)[C@@H](C)CC)C(=O)N[C@H](CCC(=O)O)C(=O)N[C@@H](Cc1ccc(O)cc1)C(=O)N[C@@H](CC(C)C)C(=O)N[C@@H](CC(C)C)C(=O)N[C@@H](CCC(=O)O)C(=O)NCC(=O)NCC(=O)N1CCC[C@H]1C(=O)N[C@@H](CO)C(=O)N[C@@H](CO)C(=O)NCC(=O)N[C@@H](CCC(=O)O)C(=O)N1CCC[C@H]1C(=O)N1CCC[C@H]1C(=O)N1CCC[C@H]1C(=O)N[C@@H](CCC(=O)O)C(N)=O [Example 478] (H-H[Aib]QGT[αMePhe(2-F)]TSD[4Pal][αMeS]I[αMeL]LD[Orn]K([AEEA-γGlu-C18 diacid])AQ[αMe4Pal]NFI[dE]YLLEGGPSSGEPPPE-NH2) | 665 | 0.243 | 28.6 | 26 | 8.07 | 0.106
2 | CC[C@H](C)[C@H](NC(=O)[C@H](Cc1ccccc1)NC(=O)[C@H](C)NC(=O)C(C)(C)NC(=O)[C@H](CCC(N)=O)NC(=O)[C@H](C)NC(=O)[C@H](CCCCNC(=O)COCCOCCNC(=O)CC[C@H](NC(=O)CCCCCCCCCCCCCCCCC(=O)O)C(=O)O)NC(=O)[C@H](CCCCN)NC(=O)[C@H](CC(=O)O)NC(=O)[C@H](CC(C)C)NC(=O)[C@](C)(CC(C)C)NC(=O)[C@@H](NC(=O)[C@H](CO)NC(=O)[C@H](Cc1ccncc1)NC(=O)[C@H](CC(=O)O)NC(=O)[C@H](CO)NC(=O)[C@@H](NC(=O)[C@](C)(Cc1ccccc1F)NC(=O)[C@@H](NC(=O)CNC(=O)[C@H](CCC(N)=O)NC(=O)C(C)(C)NC(=O)[C@@H](N)Cc1ccc(O)cc1)[C@@H](C)O)[C@@H](C)O)[C@@H](C)CC)C(=O)N[C@@H](CCC(=O)O)C(=O)N[C@@H](Cc1ccc(O)cc1)C(=O)N[C@@H](CC(C)C)C(=O)N[C@@H](CCC(=O)O)C(=O)N[C@@H](CCC(=O)O)C(=O)NCC(=O)NCC(=O)N1CCC[C@H]1C(=O)N[C@@H](CO)C(=O)N[C@@H](CO)C(=O)NCC(=O)N[C@@H](CCC(=O)O)C(=O)N1CCC[C@H]1C(=O)N1CCC[C@H]1C(=O)N1CCC[C@H]1C(=O)N[C@@H](CO)C(=O)N[C@@H](CCC(=O)O)C(=O)NCC(N)=O [Example 488] (H-Y[Aib]QGT[αMePhe(2-F)]TSD[4Pal]SI[αMeL]LDKK([AEEA-γGlu-C18 diacid])AQ[Aib]AFIEYLEEGGPSSGEPPPSEG-NH2) | 651 | 0.682 | 43.3 | 2.31 | 5.13 | 0.0263
3 | CC[C@H](C)[C@H](NC(=O)[C@H](Cc1ccccc1)NC(=O)[C@H](C)NC(=O)C(C)(C)NC(=O)[C@H](CCC(N)=O)NC(=O)[C@H](C)NC(=O)[C@H](CCCCNC(=O)COCCOCCNC(=O)CC[C@H](NC(=O)CCCCCCCCCCCCCCCCC(=O)O)C(=O)O)NC(=O)[C@H](CCCCN)NC(=O)[C@H](CC(=O)O)NC(=O)[C@H](CC(C)C)NC(=O)[C@](C)(CC(C)C)NC(=O)[C@@H](NC(=O)[C@H](CO)NC(=O)[C@H](Cc1ccncc1)NC(=O)[C@H](CC(=O)O)NC(=O)[C@H](CO)NC(=O)[C@@H](NC(=O)[C@](C)(Cc1ccccc1F)NC(=O)[C@@H](NC(=O)CNC(=O)[C@H](CCC(N)=O)NC(=O)C(C)(C)NC(=O)[C@@H](N)Cc1ccc(O)cc1)[C@@H](C)O)[C@@H](C)O)[C@@H](C)CC)C(=O)N[C@@H](CCC(=O)O)C(=O)N[C@@H](Cc1ccc(O)cc1)C(=O)N[C@@H](CC(C)C)C(=O)N[C@@H](CCC(=O)O)C(=O)N[C@@H](CCC(=O)O)C(=O)NCC(=O)NCC(=O)N1CCC[C@H]1C(=O)N[C@@H](CO)C(=O)N[C@@H](CO)C(=O)NCC(=O)N[C@@H](CCC(=O)O)C(=O)N1CCC[C@H]1C(=O)N1CCC[C@H]1C(=O)N1CCC[C@H]1C(=O)N[C@@H](CO)C(=O)N[C@@H](CCC(=O)O)C(=O)NCC(N)=O [Example 493] (H-Y[Aib]QGT[αMePhe(2-F)]TSD[4Pal]SI[αMeL]LDKK([AEEA-γGlu-C18 diacid])AQ[Aib]AFIEYLEEGGPSSGEPPPSEG-NH2) | 333 | 0.644 | 47 | 3.34 | 6.25 | 0.0406
4 | CC[C@H](C)[C@H](NC(=O)[C@H](Cc1ccccc1)NC(=O)[C@H](CCCN)NC(=O)C(C)(C)NC(=O)[C@H](CCC(N)=O)NC(=O)[C@H](C)NC(=O)[C@H](CCCCNC(=O)CC[C@H](NC(=O)CCCCCNC(=O)CCCCCCCCCCCCCCCCCCC(=O)O)C(=O)O)NC(=O)[C@H](CCCN)NC(=O)[C@H](CC(=O)O)NC(=O)[C@H](CC(C)C)NC(=O)[C@](C)(CC(C)C)NC(=O)[C@@H](NC(=O)[C@](C)(CO)NC(=O)[C@H](Cc1ccncc1)NC(=O)[C@H](CC(=O)O)NC(=O)[C@H](CO)NC(=O)[C@@H](NC(=O)[C@](C)(Cc1ccccc1F)NC(=O)[C@@H](NC(=O)CNC(=O)[C@H](CCC(N)=O)NC(=O)C(C)(C)NC(=O)[C@@H](N)Cc1ccc(O)cc1)[C@@H](C)O)[C@@H](C)O)[C@@H](C)CC)C(=O)N[C@H](CCC(=O)O)C(=O)N[C@@](C)(Cc1ccc(O)cc1)C(=O)N[C@@H](CC(C)C)C(=O)N[C@@H](CCC(N)=O)C(=O)N[C@@H](CCC(=O)O)C(=O)NCC(=O)NCC(=O)N1CCC[C@H]1C(=O)N[C@@H](CO)C(=O)N[C@@H](CO)C(=O)NCC(=O)N[C@@H](CCC(=O)O)C(=O)N1CCC[C@H]1C(=O)N1CCC[C@H]1C(=O)N1CCC[C@H]1C(=O)N[C@@H](CCC(=O)O)C(=O)NCC(=O)N[C@H](C(=O)N[C@@H](CCC(=O)O)C(=O)N[C@@H](CCC(=O)O)C(N)=O)[C@@H](C)O [Example 654] | 886 | 0.349 | 116 | 10.9 | 2.66 | 0.0471
